Measured values published in patent publication US12104178B2, “DHFR tunable protein regulation” (Obsidian Therapeutics, Inc., priority 2017, dated 2024).

What was measured:
Assay type in all cases: cell-based, human
[1] = system: IL12 receptor, STAT4; assay: HEK-Blue sensor cell functional IL12 assay; settings: media of Shield-1 treated cells
Protocol: HEK-Blue sensor cells (InvivoGen, San Diego, CA) were utilized to evaluate whether DD regulated IL12 is capable of regulating signaling downstream of IL12. In these cells, the IL12 receptor, STAT4 and downstream transcriptional elements are linked to a reporter gene such that IL12 signaling can be monitored. One million HEK 293T were transfected with 200 ng of OT-IL12-003 plasmid using Lipofectamine 2000 (Thermo Fisher Scientific, Waltham, MA). 48 hours after transfection, cells were treated with growth media containing 10 μM Shield-1, incubated for another 24 hours, following which, media was collected. 50,000 HEK 293 Blue sensor cells were plated onto 96 well plates and incubated overnight with media (at different dilutions) from Shield-1 treated OT-IL12-003 expressing HEK293T cells. […] Absorption was measured at 620 nm using a spectrophotometer. […] Functional IL12 concentrations were determined by comparing the optical density of each sample with IL12 standard curve.
The dependence of functional IL12 production on the dose of Shield-1 used was measured. […] Absorption was measured at 620 nm using a spectrophotometer. […] Functional IL12 concentrations were determined by comparing the optical density of each sample with IL12 standard curve.

[2] = system: HEK293T cells; assay: FKBP-IL12 transient transfection, IL12 p40 ELISA; settings: 10 μM Shield-1 vs vehicle
Protocol: HEK293T cells were transiently transfected with 200 ng or 1 μg of FKBP-IL12 plasmids (OT-IL12-001 to OT-IL12-005), and subsequently treated with 10 μM Shield-1 or vehicle control for 6 hours. Culture media was collected from transfected cells and diluted 1:50 to measure IL12 levels using p40 ELISA. The stabilization ratio was defined as fold change in IL12 expression with ligand treatment compared to treatment with DMSO (i.e. in the absence of ligand) with the same construct. Stabilization ratio greater than 1 is desired.

[3] = system: HCT-116 cells; assay: DD regulated luciferase, western blot and luciferase activity; settings: 1 μM Shield-1 or 10 μM Trimethoprim, 24 h
Excerpt: DD regulated luciferase can be used to track cells in vivo e.g. T cells. Firefly luciferase or Renilla luciferase may be utilized as the payload. HCT-116 cells were stably transduced with the constitutive (OT-RLuc-001) or DD regulated constructs (OT-RLuc-002, OT-RLuc-003, OT-RLuc-004, OT-RLuc-005 and OT-RLuc-006). […] Blots were also probed with anti-GAPDH antibody to ensure uniform protein loading in all samples. […] (FIG. 59A).
Ligand dependent activity of Renilla and firefly luciferase constructs was measured using coelentrazine and luciferin substrates respectively. […] Luciferase activity was measured as luminescence reading using a luminometer and the values were compared to control samples consisting of lysis buffer and substrate.

B1: OT-IL12-003: FKBP-IL12 plasmid (protein)
chain: MCHQQLVISWFSLVFLASPLVA[about 100 residues omitted]SARNRQKRSIWELKKDVYVVELDWYPDAPGEMVVLTCDTPEEDGITWTLDQSSEVLGSGKTLTIQVKEFGDAGQYTCHKGGEVLSHSLLLLHKKEDGIWSTDILKDQKEPKNKTFLRCEAKNYSGRFTCWWLTTISTDLTFSVKSSRGSSDPQGVTCGAATLSAERVRGDNKEYEYSVECQEDSACPAAEESLPIEVMVDAVHKLKYENYTSSFFIRDIIKPDPPKNLQLKPLKNSRQVEVSWEYPDTWSTPHSYFSLTFCVQVQGKSKREKKDRVFTDKTSATVICRKNASISVRAQDRYYSSSWSEWASVPCSGGGGSGGGGSGGGGSRNLPVATPDPGMFPCLHHSQNLLRAVSNMLQKARQTLEFYPCTSEEIDHEDITKDKTSTVEACLPLELTKNESCLNSRETSFITNGSCLASRKTSFMMALCLSSIYEDLKMYQVEFKTMNAKLLMDPKRQIFLDQNMLAVIDELMQALNFNSETVPQKSSLEEPDFYKTKIKLCILLHAFRIRAVTIDRVMSYLNAS
Functional IL12 (HEK-Blue, FIG. 31A, 31B) [1]: Measurable levels of functional IL12 were reached with 640-fold dilutions
Stabilization ratio [2]: 1.21

B2: OT-RLuc-003: DD regulated Renilla luciferase, ligand Shield-1 (protein)
chain: [about 100 residues omitted]SGTSKVYDPEQRKRMITGPQWWARCKQMNVLDSFINYYDSEKHAENAVIFLHGNAASSYLWRHVVPHIEPVARCIIPDLIGMGKSGKSGNGSYRLLDHYKYLTAWFELLNLPKKIIFVGHDWGACLAFHYSYEHQDKIKAIVHAESVVDVIESWDEWPDIEEDIALIKSEEGEKMVLENNFFVETMLPSKIMRKLEPEEFAAYLEPFKEKGEVRRPTLSWPREIPLVKGGKPDVVQIVRNYNAYLRASDDLPKMFIESDPGFFSNAIVEGAKKFPNTEFVKVKGLHFSQEDAPDEMGKYIKSFVERVLKNEQ
Luciferase stabilization by western blot (FIG. 59A) [3]: strong Shield-1 dependent stabilization of Renilla luciferase
